Test results: patent US20250145722A1, “ANTI-GAL3 ANTIBODIES AND METHODS OF USE” (TrueBinding, Inc., priority 2020, published 2025)

What was measured:
Human Gal3 peptides [1] = test: Gal3 peptide library binding ELISA; conditions: antibodies 5 μg/mL
Protocol: (§1) To identify the epitopes to which Gal3 antibodies with and without Gal3-APP695 blocking activity bound, a library of 20 amino acid peptides representing portions of Gal3, summarized in FIG. 17 (SEQ ID NOs: 3-26), was produced and the ability to bind Gal3 antibodies was evaluated by ELISA.
(§2) Human Gal3 peptides (LifeTein, custom order) and human Gal3 proteins (R&D Systems, 8259-GA; TrueBinding, QCB200349) were diluted in PBS (Corning, 21-030-CM) to concentrations of at least 100 μg/mL (peptides) or 1 μg/mL (proteins), and added to the wells of several 96-well ELISA plates (Thermo Fisher, 44-2404-21). After incubating the plates at 4° C. overnight, the plates were washed three times with PBST (PBS with 0.05% Tween 20 [VWR, 0777]). The plates were then blocked for an hour with 2% BSA (EMD Millipore, 126609) in PBST at room temperature with gentle rocking. Thereafter, the 2% BSA in PBST was discarded and Gal3-binding antibodies (reformatted hIgG4 [S228P]) were diluted in 2% BSA in PBST to concentrations of 5 μg/mL and added to the wells. The plates were incubated for an hour at room temperature with gentle rocking and then washed three times with PBST. […] The reaction was stopped with 1M HCl (JT Baker, 5620-02) and read using a plate reader (Molecular Devices) at absorbance of 450 nm.

Human Gal3 peptides [2] = molecular target: T1, Human Gal3 peptides (Homo sapiens, UniProt P17931); test: Gal3 peptide library binding ELISA; conditions: antibodies 5 μg/mL
T1 construct: purchased LifeTein custom order; host or cells: synthetic peptides
Protocol: as §1, §2

T1 sequence (P17931 52-71): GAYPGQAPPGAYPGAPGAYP

B1: F846TC.16B5: anti-Gal3 antibody (antibody)
heavy: QIQLVQSGPELKKPGETVKISCKASGYTFTNYGMNWVKQAPGKGLKWMGWINTYTGEPAYADDFKGRFAFSLETSASTAYLQINNLKNEDMATYFCARWGGYDGDYYAMDYWGQGTSVTVSSASTKGPSVFPLAPCSRSTSESTAALGCLVKDYFPEPVTVSWNSGALTSGVHTFPAVLQSSGLYSLSSVVTVPSSSLGTKTYTCNVDHKPSNTKVDKRV[letters of human IgG4 Fc with S228P (EU numbers) omitted]
light: NIMMTQSPSSLAVSAGEKVTMSCKSSQSVLYSSNQKNYLAWYQQKPGQSPKLLIYWASTRESGVPDRFTGSGSGTDFTLTISSVQAEDLAVYYCHQYLSSLTFGAGTKLELKRTVAAPSVFIFPPSDEQLKSGTASVVCLLNNFYPREAKVQWKVDNALQSGNSQESVTEQDSKDSTYSLSSTLTLSKADYEKHKVYACEVTHQGLSSPVTKSFNRGEC
Binding to Peptide 17 (SEQ ID NO: 19) of Gal3 (Human Gal3 peptides [1]): bind | Binding to Peptide 6 (SEQ ID NO: 8) of Gal3 (Human Gal3 peptides [2]): bind and bound
